In paper PMC4336329 (PLoS ONE, 2015):
Hit rate of the full screen: of about 310,000 compounds, about 2,200 (0.71%) showed an effect of 50% or more. Effects have a minus sign here. The list shows a part of the results.

biological target: human ether-à-go-go-related gene (hERG) potassium channel (human, UniProt Q12809); assay: primary screen, population patch clamp on CHO cells stably expressing hERG
Sequence (Q12809 whole entry, looked up): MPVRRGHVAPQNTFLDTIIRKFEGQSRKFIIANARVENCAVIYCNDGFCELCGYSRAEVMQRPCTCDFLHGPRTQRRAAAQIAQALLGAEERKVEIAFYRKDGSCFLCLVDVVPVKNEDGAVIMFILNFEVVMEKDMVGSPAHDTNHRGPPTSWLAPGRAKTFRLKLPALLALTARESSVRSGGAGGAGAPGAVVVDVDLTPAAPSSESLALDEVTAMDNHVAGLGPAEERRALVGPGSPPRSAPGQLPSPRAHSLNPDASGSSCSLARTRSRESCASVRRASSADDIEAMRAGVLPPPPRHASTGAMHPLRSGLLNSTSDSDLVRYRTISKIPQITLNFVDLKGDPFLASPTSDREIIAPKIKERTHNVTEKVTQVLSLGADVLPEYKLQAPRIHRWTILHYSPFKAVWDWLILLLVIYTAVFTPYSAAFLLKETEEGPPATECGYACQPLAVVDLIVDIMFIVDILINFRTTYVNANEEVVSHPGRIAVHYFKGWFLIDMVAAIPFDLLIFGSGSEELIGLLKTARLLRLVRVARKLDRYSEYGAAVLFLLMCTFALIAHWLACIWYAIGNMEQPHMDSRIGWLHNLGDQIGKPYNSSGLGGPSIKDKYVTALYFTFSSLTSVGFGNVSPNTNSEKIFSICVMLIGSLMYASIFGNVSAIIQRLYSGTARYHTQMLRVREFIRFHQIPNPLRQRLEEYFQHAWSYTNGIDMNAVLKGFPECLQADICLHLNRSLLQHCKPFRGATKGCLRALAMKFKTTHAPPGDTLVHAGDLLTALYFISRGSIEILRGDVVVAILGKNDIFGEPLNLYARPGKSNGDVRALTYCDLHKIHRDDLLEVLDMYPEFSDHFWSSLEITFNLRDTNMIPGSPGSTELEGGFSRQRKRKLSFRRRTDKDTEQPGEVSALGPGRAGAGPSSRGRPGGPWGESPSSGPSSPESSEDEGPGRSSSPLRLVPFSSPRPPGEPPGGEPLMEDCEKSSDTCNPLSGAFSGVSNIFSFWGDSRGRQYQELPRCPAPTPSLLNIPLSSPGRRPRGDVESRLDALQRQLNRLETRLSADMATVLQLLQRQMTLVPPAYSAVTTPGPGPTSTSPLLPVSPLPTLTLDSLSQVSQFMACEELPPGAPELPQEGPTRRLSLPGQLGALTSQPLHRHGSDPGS

SMILES | hERG current change (%, negative = inhibition) at 1uM [%]
COc1ccc(NC(=O)CN(C)C(=O)c2ccc(N3CCCCCC3)c([N+](=O)[O-])c2)cc1 | -15.7
Cc1cccc(-n2nnnc2SCC(=O)NCC2CCCO2)c1 (stereo not drawn) | 7.81
CCCSc1ncnc2sc(C)c(C)c12 | 2.67
COCCn1c(SCC#N)nnc1-c1ccc([N+](=O)[O-])cc1 | -12.9
C=CC1CN2CCC1CC2[C@@H](OC(=O)c1ccc(OC)cc1)c1ccnc2ccccc12 (stereo partly drawn) | 6.91
CCOC(=O)N1CCN(C(=O)CNC(=O)C23CC4CC(CC(C4)C2)C3)CC1 | 15.2
N#Cc1cccc(NC(=O)CC2CCCC2)c1 | 16.2
CCOC(=O)N1CCC(NC(=O)Cn2cc3c(n2)CCC(C)C3)CC1 (stereo not drawn) | 2.98
Cc1cc(C)c(C#N)c(SCc2cn3ccccc3n2)n1 | 3.02
Cc1oc2c(C)c(O)ccc2c(=O)c1-c1ccc2ccccc2n1 | 16.3
Cc1cccc(C(=O)NCCC(=O)Nc2ccc(F)c([N+](=O)[O-])c2)c1 | 2.37
O=C(CC1CCCCC1)NCc1nc(-c2ccccc2)no1 | 8.79
CSc1nnc(C2CCCN2)n1C.Cl (stereo not drawn) | 4.43
CCOC(=O)C1=C(C)Nc2nnnn2C1c1c[nH]c2ccccc12 (stereo not drawn) | 10
O=C(O)Cc1c(C(=O)O)nnn1-c1cccc(C(F)(F)F)c1 | 9.73
O=c1oc2ccccc2n1CCCCCn1c(=O)oc2ccccc21 | 2.86
CCc1cc2c(CN3CCN(CC)CC3)cc(=O)oc2cc1O | 6.68
CCC(C(=O)NC1CCCC1)N(C(=O)Cn1nnc(-c2ccc(C)o2)n1)c1cccc(OC)c1 (stereo not drawn) | 6.28
CN(Cc1ccccc1)C(=O)c1[nH]cnc1C(=O)N[C@@H](Cc1ccccc1)C(=O)OC(C)(C)C | 7.2
CC(CCc1ccccc1)NC(=O)C(=O)NCCO (stereo not drawn) | 0.364
CC(C)NC(=O)/C(C#N)=C/c1ccc(N(C)C)o1 | 13.2
CCCCS(=O)(=O)CC(COc1ccccc1)OC(=O)c1ccccc1 (stereo not drawn) | 5.77
CCNC(=S)N(CCc1ccc(S(N)(=O)=O)cc1)C1CC(=O)N(c2ccccc2)C1=O (stereo not drawn) | 7.82

SMILES | hERG current change (%, negative = inhibition) at 1uM [%]
c1ccc2c(c1)Cn1nnnc1-2 | 3.8
CCOc1cc(/C=C\c2nc(O)c([N+](=O)[O-])c(=O)[nH]2)ccc1OC(C)C | 14.6
CCC(OC(=O)c1nsc(Cl)c1Cl)C(=O)NCCOC (stereo not drawn) | 4.67
Cc1c(NS(=O)(=O)N2CCCCC2)c(=O)n(-c2ccccc2)n1C | 15.5
COC(=O)c1ccc(NC(=O)c2ccc3nccnc3c2)cc1 | 11.4
O=C(CCl)N=c1sccn1Cc1ccc(Cl)cc1Cl | 20.1
Cc1ccc(-c2cc(C(=O)Nc3cccnc3)c3ccccc3n2)s1 | 12.1
O=C(NCCCN1CCOCC1)c1ccc(NC(=O)C2COc3ccccc3O2)cc1 (stereo not drawn) | -6.89
C=CCSC1=N/C(=C\c2cccnc2)C(=O)N1c1ccc(OC)cc1 | 12.1
CC1CCCC(NC(=O)c2cc(S(=O)(=O)N3CCOCC3)ccc2F)C1C (stereo not drawn) | -2.33
O=C1N=NC(=O)N1c1ccccc1 | 11.4
CN1CCCC(OC(=O)COc2ccc(Br)cc2)C1.Cl (stereo not drawn) | -0.399
CCc1nnc(NC(=O)C2=CCN(S(=O)(=O)c3ccccc3)CC2)s1 | 9.95
COc1ccccc1N(CC(O)COc1ccc(C)cc1)S(=O)(=O)c1ccccc1 (stereo not drawn) | 7.88
O=C(c1ccco1)N1CCN(C2=NS(=O)(=O)c3ccccc32)CC1 | 1.87
COC(=O)c1ccc(NC(=O)CCN2CCOCC2)cc1 | 6.71
COc1ccc(CNCC(=O)Nc2cccc(S(N)(=O)=O)c2)cc1.O=C(O)C(=O)O | 6.54
COc1ccc(NC(=O)Cc2c(Cl)cccc2Cl)cn1 | 8.99
CCC(Cc1ccccc1)NC(=O)CSc1ccsc1[N+](=O)[O-] (stereo not drawn) | 8.33
CCN(CC)CCCN1C(=O)C(=O)/C(=C(/O)c2ccc3c(c2)OCCO3)C1c1ccco1 (stereo not drawn) | 7.46
CN(Cc1ccccc1)CC(O)COc1ccc(CNCCOc2cccnc2)cc1 (stereo not drawn) | 12
CCOC(=O)/C=C/[C@H]1CC2(CCO1)SCCCS2 | 6.05
Cc1cccc(Nc2nnc(SC(C)C(=O)NC3CC3)s2)c1 (stereo not drawn) | 1.34

SMILES | hERG current change (%, negative = inhibition) at 1uM [%]
COC(=O)c1cc(Oc2ccc(C(=O)OC)cc2N)cc(C(=O)OC)c1 | 3.78
C[C@H]1CC[C@@]2(O[C@@H](CCO)C[C@H](O)[C@H]2O)O1 | 15.3
Cc1ccc(C(=O)NC(=S)Nc2ccc(NC(=O)c3cccc(Cl)c3)cc2)cc1 | 0.543
CCOC(=O)C1CCN(C(=O)/C=C/c2ccc3c(c2)OCO3)CC1 | 18.2
O=C(Nc1ccc2c(c1)OCCO2)Nc1ccc2c(c1)OCO2 | 16
O=C(c1ccco1)N1CCN(c2ncccn2)CC1 | 1.97
CC(OC(=O)c1cccnc1Cl)C(=O)Nc1ccc(S(N)(=O)=O)cc1 (stereo not drawn) | 23.1
COc1ccc(C2NC(=O)c3sc4nc(C)c(C(C)=O)c(-c5ccc(Cl)cc5)c4c3N2)cc1 (stereo not drawn) | 4.5
Cc1ccc(C(=O)NC(=S)Nc2ccc(S(=O)(=O)N(C)c3ccccc3)cc2)cc1 | 15.1
COc1ccc(CCN=C(NS(=O)(=O)c2ccc(Cl)cc2)c2ccccc2)cc1 | -2.44
Cc1noc(C)c1C(=O)Nc1cccnc1 | 15
O=C(c1cc(COc2ccc3ncccc3c2)on1)N1CCCCCC1 | 5.47
CCOC(=O)N1CCN(C(=O)CSc2nnc(Cc3cccn3C)n2CCc2ccccc2)CC1 | 11.7
O=C(O)c1ccc(NS(=O)(=O)c2cccc(C(=O)Nc3cccc(C(=O)O)c3)c2)cc1 | 10
COc1ccc(-c2cc3c(=O)n(CC(=O)NCCN4CCCC4)nc(C)n3n2)cc1 | -9.09
COC(=O)C(Cc1ccc(O)cc1)NC(=O)c1ccccc1OC (stereo not drawn) | 3.58
O=C(Nc1ccc(N2CCOCC2)cc1)C1CCN(S(=O)(=O)c2ccc3c(c2)OCCO3)CC1 | 3.43
CCCCCN(C(=O)NC(=O)NCCCC)S(C)(=O)=O | 2.07
CCOC(=O)[C@@H]1[C@H]2COc3ccccc3[C@@H]2N2C(=O)N(c3cccc(F)c3)C(=O)[C@]12C | 6.94
CCn1c(=O)c(=O)[nH]c2cc(C(=O)NC3CCCc4ccccc43)ccc21 (stereo not drawn) | 11.2
Cc1cccc(C)c1NC(=O)C(NC(=O)c1ccccn1)c1ccccc1[N+](=O)[O-] (stereo not drawn) | 9.82
O=C(NC[P+](=O)O)OCc1ccccc1 | 6.58
CCC(C)NC(=O)C1CCC(=O)N1CCc1ccccc1 (stereo not drawn) | 9.32

SMILES | hERG current change (%, negative = inhibition) at 1uM [%]
CCOC(=O)CSc1nnnn1-c1cc(OC)ccc1OC | 4.37
S=c1[nH]nc(-c2ccncc2)n1/N=C/C=C/c1ccco1 | 12.5
COc1ccc(OC)c(/C=C2\SC(N3CCCC(C)C3)=NC2=O)c1 (stereo not drawn) | 4.26
Fc1cccc(CN2CCC(Cc3ccccc3)CC2)c1 | 9.02
COc1cc(C2NC(=O)NC(C)=C2C(=O)OCC2CCCO2)ccc1O (stereo not drawn) | 8.04
Cc1ccc(NC(=O)CN2C(=O)NC3(CCc4ccccc43)C2=O)cc1S(=O)(=O)N1CCCCC1 (stereo not drawn) | 11.4
COC(=O)c1sc(N)c(C(=O)OC)c1COC(=O)c1c(C)noc1C | 9.24
CCSC1=C(C#N)C2(CCCCC2)C2=C(CC(C)(C)CC2=O)N1 | 12.3
COc1ccc(-c2cnnn2-c2ccc(NC(=O)c3ccco3)cc2)cc1OC | -2.01
Cc1ccc(C)c(NS(=O)(=O)c2ccc3[nH]c(=O)oc3c2)c1 | 13.3
O=C(O)c1cc(=O)c2cc(Cl)ccc2o1 | 13.3
Cc1ccccc1-c1nc2ccccc2o1 | 16.4
CCOC(=O)C1=C(C)N(C)C(C)=C(C(=O)OCC)C1c1ccc(C(=O)OC)cc1 | 11.1
CNC(=S)NNc1nc(-c2ccccc2)c2cc(Cl)ccc2n1 | 15.6
CC(=O)Nc1ccc2c(c1)CC1(C(=O)N(C)C(=O)N(C)C1=O)C1CCCN21 (stereo not drawn) | 14.6
COc1ccccc1C(=O)Nc1ccc2c(c1)OCCO2 | 16.8
O=C(/C=C/c1cccc([N+](=O)[O-])c1)Nn1c(-c2ccccc2F)nc2ccccc2c1=O | 3.83
COc1ccccc1N(C(=O)c1ccco1)C(C(=O)NC1CCCC1)c1cccnc1 (stereo not drawn) | 4.39
O=C(CSc1ncnc2scc(-c3ccccc3)c12)N1CCN(c2ccccc2F)CC1 | 7.36
CCOC(=O)C1CCCN(C(=O)CCCn2nnnc2CN2CCC(C)CC2)C1 (stereo not drawn) | 8.37
O=C(NCCCCNC(=O)c1c(F)c(F)c(F)c(F)c1F)c1c(F)c(F)c(F)c(F)c1F | 1.56
